According to paper PMC4336329 (PLoS ONE, 2015):
Screen size: about 310,000 compounds; about 2,200 (0.71%) showed an effect of 50% or more. Effects have a minus sign here. Some of the results follow.

Target: human ether-à-go-go-related gene (hERG) potassium channel (human, UniProt Q12809)
Assay: primary screen, population patch clamp on CHO cells stably expressing hERG

Sequence of human ether-à-go-go-related gene (hERG) potassium channel (Q12809 whole entry, looked up): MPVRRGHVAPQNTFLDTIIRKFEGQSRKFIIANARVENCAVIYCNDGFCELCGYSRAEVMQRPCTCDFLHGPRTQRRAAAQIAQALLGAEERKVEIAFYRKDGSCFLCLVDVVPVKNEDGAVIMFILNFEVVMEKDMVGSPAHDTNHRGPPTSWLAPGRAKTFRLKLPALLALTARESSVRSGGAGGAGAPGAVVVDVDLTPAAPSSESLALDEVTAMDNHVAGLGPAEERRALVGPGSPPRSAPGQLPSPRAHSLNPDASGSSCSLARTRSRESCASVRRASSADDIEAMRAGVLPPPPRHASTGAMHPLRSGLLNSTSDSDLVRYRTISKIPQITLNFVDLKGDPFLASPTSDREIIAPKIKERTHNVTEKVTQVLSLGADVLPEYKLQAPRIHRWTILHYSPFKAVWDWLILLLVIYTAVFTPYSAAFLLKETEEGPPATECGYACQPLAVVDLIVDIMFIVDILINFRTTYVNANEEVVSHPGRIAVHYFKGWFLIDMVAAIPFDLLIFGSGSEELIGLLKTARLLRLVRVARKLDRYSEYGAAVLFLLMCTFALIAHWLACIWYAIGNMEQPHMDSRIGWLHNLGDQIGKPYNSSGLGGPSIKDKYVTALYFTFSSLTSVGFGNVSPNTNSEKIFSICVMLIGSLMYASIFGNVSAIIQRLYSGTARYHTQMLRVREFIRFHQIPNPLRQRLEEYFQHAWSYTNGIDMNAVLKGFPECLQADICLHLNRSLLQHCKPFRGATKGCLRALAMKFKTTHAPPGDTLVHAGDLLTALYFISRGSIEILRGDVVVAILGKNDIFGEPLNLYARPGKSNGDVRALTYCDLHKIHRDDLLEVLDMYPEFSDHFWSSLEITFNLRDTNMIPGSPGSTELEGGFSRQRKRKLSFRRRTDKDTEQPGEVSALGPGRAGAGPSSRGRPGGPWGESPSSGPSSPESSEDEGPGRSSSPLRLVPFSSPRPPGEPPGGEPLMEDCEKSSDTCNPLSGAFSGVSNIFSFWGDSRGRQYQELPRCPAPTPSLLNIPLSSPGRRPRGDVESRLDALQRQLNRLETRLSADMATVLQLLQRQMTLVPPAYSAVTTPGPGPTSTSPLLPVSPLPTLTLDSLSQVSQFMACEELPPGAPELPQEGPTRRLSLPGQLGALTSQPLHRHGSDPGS

Structure (SMILES) | hERG current change (%, negative = inhibition) at 1uM [%]
COc1ccc(C2=NOC(Cn3nc(C(=O)NCc4ccc(OC(F)(F)F)cc4)cc3-c3ccccc3)C2)cc1 (centres unmarked) | -1.05
CCC(C)NS(=O)(=O)c1ccc(NC(=O)c2c(-c3ccccc3)noc2C)cc1 (centres unmarked) | 7.49
CCn1c(SCC(=O)N/N=C/C(C)=C\c2ccco2)nnc1-c1ccccc1 | -8.34
CC(NCCC1(Cc2ccccc2Cl)CCOC(C)(C)C1)c1cccs1 (centres unmarked) | 5.67
O=C(Nc1ccc(Cc2nc3ccccc3s2)cc1)c1ccncc1 | 10.7
CCNC(=O)Nc1cc(S(=O)(=O)Nc2ccc(OC)cc2)ccc1N1CCOCC1 | 4.31
O=C(CCNS(=O)(=O)c1cccs1)NCc1ccco1 | 3.35
NC(=O)c1cc([N+](=O)[O-])c(Cl)cc1NCc1ccncc1 | 12
CCN(CC)CCN(C(=O)c1ccc(S(=O)(=O)N(CC)c2ccccc2)cc1)c1nc2c(OC)ccc(OC)c2s1.Cl | 6.77
CCCn1nc(C(=O)Nc2cc(C(=O)OC)ccc2C)c2ccccc2c1=O | 1.48
CCOc1ccc(-c2csc3ncn(-c4ccc(OC)cc4)c(=O)c23)cc1 | 8.39
O=[N+]([O-])c1ccc(/C=C/c2ccc3cccc([N+](=O)[O-])c3n2)cc1 | 7.84
COC(=O)c1ccc(OCC(O)CN2CCN(C(=O)c3ccco3)CC2)c(OC)c1 (centres unmarked) | 5.43
NC(=O)N/N=C1\CCS(=O)(=O)c2ccc(F)cc21 | 18.6
COC(=O)c1ccc(SCC(=O)N2CCC(C)CC2)c([N+](=O)[O-])c1 | 3.93
CC(=O)Nc1ccc(OCC(=O)NCc2ccc(C)cc2)cc1 | 1
O=C1CN=C(c2cc([N+](=O)[O-])ccc2Cl)c2cc([N+](=O)[O-])ccc2N1 | 8.43
CCOCCSc1nc2c(c(-c3cccs3)c1C#N)CC/C2=C/c1cccs1 | 14.8
COc1ccc(OC(=O)c2ccc(OC)c(S(=O)(=O)N3CCOCC3)c2)cc1 | 4.5
CCOc1ccc(S(=O)(=O)n2nc(C)cc2C)cc1 | 13.8
CN(CCCNC(=O)c1cc2c(Cl)nc3ccccc3c2s1)Cc1ccccc1 | 4.48
Cc1ccc(S(=O)(=O)N(C)CC(=O)O/N=C(\N)c2cccc([N+](=O)[O-])c2)cc1 | 0.303

Structure (SMILES) | hERG current change (%, negative = inhibition) at 1uM [%]
CCC(C)[C@@H](C(=O)Nc1ccc2c(c1)OCO2)N1Cc2ccccc2C1=O (some centres unmarked) | 3.29
CCOc1cc2c(cc1OCC)C(c1ccccc1)N(c1ccccc1)C(=O)C2 (centres unmarked) | 9.47
O=C(N/N=C/C1C(c2ccccc2)C1(Cl)Cl)c1cccc(Br)c1 (centres unmarked) | 10.6
COC(=O)c1cc(S(=O)(=O)NC2CCC(C)CC2)cn1C (centres unmarked) | 14.3
Cc1cc(Br)cc(C)c1OCCCCN(C)C.O=C(O)C(=O)O | -20.1
O=C(Nc1nnc(-c2ccccc2)o1)Nc1ccc(F)cc1F | 2.16
O=C(O)c1ccc(N2C(=O)C3C4c5ccccc5C(Br)(c5ccccc54)C3C2=O)cc1 (centres unmarked) | 11.3
CCOc1cccc(N2C(=O)CC(N3CCC(C(N)=O)(N4CCCCC4)CC3)C2=O)c1 (centres unmarked) | 13.9
CC(=O)c1c(C)[nH]c(C(=O)CSc2nnc(-c3ccccc3)o2)c1C | 15
CCN1CCc2c(sc3c2c(NCc2ccco2)nc2nnnn23)C1 | -69.3
Cn1nccc1C(=O)N1CCC(Cc2ccccc2)CC1 | -1.78
Cc1ccc(NC(=S)N(CCN(C)C)Cc2cccs2)cc1C | 9.88
CCCn1c(SCC(=O)N2CCc3ccccc32)nnc1-c1ccco1 | 10.1
COc1cccc2c1C(CO)N1C(C#N)C3CC(C(=O)O)C(C1C2)N3C (centres unmarked) | 7.66
O=C(NCc1ccccn1)c1cccc(S(=O)(=O)Nc2ccc(SC(F)F)cc2)c1 | 0.435
CC(C)(C)NC(=O)CN(C(=O)CCC(=O)Nc1nccs1)c1cccc(C(F)(F)F)c1 | 1.88
COCc1c(CCl)cnc(C)c1O | 20.7
O=C1C/C(=C\c2c(F)cccc2Cl)N2CCC1CC2 | 0.848
Cc1nc2ccccn2c1C(=O)NNC(=S)Nc1ccc(Cl)cc1 | 0.76
COc1ccccc1NS(=O)(=O)c1cc(C(=O)NCCN2CCOCC2)ccc1Cl.Cl | 2.92
O=C(COC(=O)c1n[nH]c2ccccc12)Nc1ccc(S(=O)(=O)N2CCCC2)cc1 | 4.84
O=C(NCCc1c[nH]c2ccccc12)/C(=C/c1cccnc1)NC(=O)c1ccco1 | -14.7

Structure (SMILES) | hERG current change (%, negative = inhibition) at 1uM [%]
Cc1ccc(CN2CCN(/N=C/c3cc(Br)ccc3O)CC2)cc1 | 14.9
CCOc1ccc(CCNC(=O)COC(=O)c2ccc(F)c(S(=O)(=O)N3CCOCC3)c2)cc1OCC | 5.48
Nc1ccc(-c2cc(-c3cccc(N)c3)nc(-c3ccccc3)n2)cc1 | 13.7
COc1ccccc1NC(=S)N1CCC(NC(=O)C23CC4CC(CC(C4)C2)C3)CC1 | 3.95
Cc1cc(C(=O)COC(=O)C2=NNC(=O)CC2)c(C)n1CCc1ccccc1 | 5.67
Cc1ccc(NC(=O)c2cnn(-c3ccccc3)c2C)cc1 | 11.3
ON1C2CCCCC2N(O)C1c1ccccc1 (centres unmarked) | 15.1
COc1cccc(-c2cc(C(=O)NC3CCCCC3)no2)c1 | 6.32
O=C(Cc1ccc(Cl)cc1)NNC(=O)c1ccco1 | 17
Cc1cc(-c2ccccc2)nc2cc(C(=O)N(Cc3ccccc3)Cc3ccccc3)nn12 | -3.92
CC(C)N(Cc1ccccc1)S(=O)(=O)c1ccc(Cl)nc1 | 6.97
O=C(NC1CCCCC1)[C@@H]1CC=C[C@@H]2CCN(Cc3ccccc3)C(=O)[C@@H]21 | 13.9
O=C(NCc1ccc(Cl)cc1Cl)C1CC(=O)N(Cc2ccccc2)C1 (centres unmarked) | -14.6
CCC(=O)OCC(=O)Nc1cc(S(=O)(=O)N(C)C)ccc1Cl | 19.8
Cc1ccc(C)c(S(=O)(=O)NC(C)C(=O)NCc2ccccn2)c1 (centres unmarked) | 17.4
COC(=O)[C@@]1(Cc2ccc(OC)cc2)[C@H]2c3cc(C(=O)N(C)C)n(Cc4c(CO)[nH]cc(C)c4=O)c3C[C@H]2CN1C(=O)c1ccccc1 | 9.85
C=CCNC(=S)Nc1ccc(N2CCOCC2)c(S(=O)(=O)Nc2ccccc2Cl)c1 | 9.02
O=C(CCCOc1ccccc1)Nc1ccc(S(=O)(=O)Nc2ccccn2)cc1 | 12.3
Cc1[nH]c2ccccc2c1C(O)CN1CCC2(CC1)OCCO2 (centres unmarked) | 1.75
CC(C)n1c(O)c(N=Nc2ccc(Cl)c(C(=O)O)c2)c2ccccc21 | -0.433
CCc1noc(C)c1C(=O)NCCc1ccc(F)cc1 | 8.6
Cc1nc(NCCCN2CCOCC2)c2oc3ccccc3c2n1.Cl | 7.18

Structure (SMILES) | hERG current change (%, negative = inhibition) at 1uM [%]
Cc1cc(C(F)(F)F)n(-c2nc(C(=O)O)cs2)n1 | 17.6
CCOC(=O)C1=C(c2ccccc2)NC(=S)NC1c1cc([N+](=O)[O-])ccc1OC (centres unmarked) | 7.47
Cc1ccc(C(=O)Nc2scc(-c3ccccc3)c2C(=O)O)o1 | 14.5
CCNC(=O)C1CC(=O)OC12CCCCC2 (centres unmarked) | 6.14
CNC(=S)N1CCn2cccc2C1c1ccc(F)cc1 (centres unmarked) | 7.45
COc1ccc(Br)cc1CN(C)C(C)C(=O)Nc1cccc(C(C)=O)c1 (centres unmarked) | 7.11
CCC(C)c1ccccc1O (centres unmarked) | 12.2
COc1ccc(O)c(C(=O)c2cnn(S(=O)(=O)c3ccc(C)cc3)c2)c1 | 5.56
COc1ccc(CNC(=O)C2CCC(CNS(=O)(=O)c3ccc(C)cc3)CC2)cc1 (centres unmarked) | 12.2
CCNc1cccc2c1C(=O)N(C)C2=O | 30.6
O=C(N/N=C/c1cccc2ccccc12)c1ccccc1Cl | 14
COC(=O)c1[nH]cnc1C(=O)c1ccccc1 | 12
COc1ccc(CC2(CO)CCN(Cc3ccc4nsnc4c3)CC2)cc1 | -4.45
COC(=O)c1sccc1NC(=O)CSc1ccccc1NS(=O)(=O)c1ccc(Cl)cc1 | -2.54
Cc1c(NC(=O)c2cccnc2C(=O)O)cccc1C(=O)O | 3.86
CCOc1ccc(-c2c(=O)n(OCC)c3ccccc3[n+]2[O-])cc1 | -2.34
O=S(=O)(c1ccc(NC(=S)N/N=C/c2ccc(N3CCOCC3)cc2)cc1)N1CCOCC1 | 17.5
Clc1ccc(SCCN2CCNCC2)cc1.O=C(O)C(=O)O | 7.9
COc1ccccc1NC(=S)N1CCN(c2nc(-c3ccccc3)cs2)CC1 | 8.23
CS(=O)(=O)c1ccc(Cl)c(NC(=O)CCc2ccccc2)c1 | 3.51
